Results published in PubChem BioAssay AID686979 (National Center for Advancing Translational Sciences (NCATS), 2013).
The campaign covered roughly 420,000 compounds. About 50,000 (12%) were called active. The shares of active, inactive and inconclusive entries below differ from those in the screen. Calls come from the whole dose curve; as a rule, active = well fitted inhibition curve with a large enough effect; inconclusive = small, poorly fitted or top-dose-only effect; inactive = flat fitted curve, though single readings scatter. No potency is given beside an inconclusive call; the fits are too rough.

Assay: qHTS for Inhibitors of human tyrosyl-DNA phosphodiesterase 1 (TDP1): qHTS in cells in presence of CPT; note: nearly all actives have a fitted effect of over 55% in size
Details: chicken DT40 Tdp1-/-;hTDP1 cells + 20 nM CPT, ATP luminescence, 48 h; activity change, negative = growth inhibition: at 46.2 µM (top of the series) unless noted
Method in brief: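 Chicken DT40 Tdp1-/- cells stably complemented with human TDP1 were seeded at 400 cells/well in medium containing 20 nM camptothecin, exposed to pin-transferred compounds, and grown at 37 °C for at least 48 hr. Viability was read as ATP luminescence.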
% is set by controls: 0 for no effect and ±100 for the full control effect; potency is the fitted concentration of half-maximal effect; tags give direction and shape of the fitted curve.

| Compound | Potency | activity change, negative = growth inhibition |
| --- | --- | --- |
| CCCNC(=O)c1cc(-c2ccccc2)c(N2CCCCC2)s1 | inconclusive [inhibitor, single point] |  |
| CC1CCCN(C(=O)C(=O)Nc2ccc3nc4n(c(=O)c3c2)CCCCC4)C1 (stereo not given) |  | inactive: -20.5% |
| COc1ccc(CC(N)c2csc(Nc3cnccn3)n2)cc1 (stereo not given) | inconclusive [inhibitor, single point] |  |
| COc1cccc(C(=O)Nc2ccc(-n3nncc3-c3ccccc3)cc2)c1OC |  | inactive: -18.1% |
| COc1ccc(CNC(=O)Cn2c(=O)nc(-c3ccccc3)c3cc(Cl)ccc32)cc1OC | inconclusive [inhibitor, single point] |  |
| CCCSCCCNC(=O)C1CCN(C(=O)c2cnn(-c3ccccc3)c2-n2cccc2)CC1 | active: 18.4 µM |  |
| Cc1ccc(Sc2ncnc3onc(C)c23)cc1 | inconclusive [inhibitor, single point] |  |
| COc1cccc(CC(CC(=O)O)C(=O)Nc2cc(C)ccc2C)c1 (stereo not given) |  | inactive: -3.5% |
| O=C(Nc1cccc(S(=O)(=O)N2CCCCC2)c1)C1CC1 |  | inactive: -20.5% |
| O=C(COc1ccccc1)N[C@@H]1c2ccccc2CC[C@@H]1OCc1ccccc1 | inconclusive [inhibitor, full curve] |  |
| O=C1N(c2ccccc2C(F)(F)F)O[C@]1(c1ccccc1)C1CCCCC1 |  | inactive: -9.27% |
| Cc1ccsc1/C=N/NC(=O)C(=O)NCC(C)C |  | inactive: 13.4% |
| Cc1cccc(N2CCN(C(=O)Cn3nc(C)c4sc5ccccc5c4c3=O)CC2)c1C |  | inactive: -1.91% |
| CC1CCCCC1NC(=O)c1cc(S(=O)(=O)N2CCCCC2)ccc1N1CCOCC1 (stereo not given) | inconclusive [inhibitor, single point] |  |
| Cn1c(SCC(=O)Nc2ccc3nc(SCC(=O)N4CCCC4)sc3c2)nnc1-c1ccc(N)cc1 | inconclusive [inhibitor, full curve] |  |
| COc1ccc(-c2nc(CS(=O)(=O)CC(=O)NCc3cccc(OC)c3OC)c(C)o2)cc1 |  | inconclusive: -31% [inhibitor] |
| CCOC(=O)N1CCC(N(CCN(C)C)C(=S)Nc2cccc(Cl)c2)CC1 | inconclusive [inhibitor, single point] |  |
| CC(C)(C)C(=O)N1CCN(C(c2ccccc2)c2ccccc2)CC1 |  | inconclusive: -30.1% [inhibitor] |
| Cc1ccc(NC(=O)c2cc(-c3cccc(O)c3)on2)cc1C | inconclusive [inhibitor, partial curve] |  |
| CCCCC(C(=O)NC(C)(C)C)N(Cc1ccccc1)C(=O)c1snc(C(N)=O)c1N (stereo not given) | inconclusive [inhibitor, single point] |  |
| CCN1C(=O)[C@H]2[C@H]3CN=C(SCc4ccc(C(=O)OC)cc4)N3[C@@](Cc3ccccc3)(C(=O)OC)[C@H]2C1=O | inconclusive [inhibitor, single point] |  |
| CC(C)CCn1cnc2c(c1=O)c1nc3ccccc3nc1n2Cc1ccc2c(c1)OCO2 | inconclusive [inhibitor, full curve] |  |
| COc1ccc(CCNC(=O)c2ccc3c(c2)N(Cc2ccc(F)cc2)CCS3)c(OC)c1 | active: 14.6 µM |  |
| CN(c1ccccc1)S(=O)(=O)c1cccc(C(=O)NCc2ccccc2CN2CCCC2)c1 | inconclusive [inhibitor, single point] |  |

| Compound | Potency | activity change, negative = growth inhibition |
| --- | --- | --- |
| CCOc1ccc(NC(=O)CN(C)C(=O)c2cc3c(s2)CCC3)cc1OCC | inconclusive [inhibitor, single point] |  |
| COc1ccc(-c2cn(CCc3c[nH]c4ccccc34)nn2)cc1 | active: 11.2 µM |  |
| O=C(O)c1cccc(Sc2ccc(Br)cc2C(=O)O)c1 |  | inactive: -12.9% |
| Cc1cc(C(C)(C)C)oc1C(=O)N(CC(=O)NC1CCCC1)c1cccc(C(F)(F)F)c1 | active: 18.4 µM |  |
| COC(=O)c1ccccc1NC(=O)C1CCC(=O)N1S(=O)(=O)c1ccc(C)cc1 (stereo not given) |  | inactive: -3.12% |
| CC(C)(C)n1nc2c(c1NC(=O)c1ccc(Br)cc1)CS(=O)C2 (stereo not given) | inconclusive [inhibitor, single point] |  |
| CCc1noc(C)c1C(=O)N1CCOc2ccc(CN3CCCC(C(=O)c4cccnc4)C3)cc2C1 (stereo not given) | inconclusive [inhibitor, single point] |  |
| COc1ccccc1NC(=O)c1nc(SCc2ccccc2F)ncc1Cl | inconclusive [inhibitor, single point] |  |
| COCc1cc(C)nc(OCC(=O)N/N=C/c2ccco2)c1C#N |  | inactive: -14.6% |
| O=C(O)c1ccccc1C(=O)NCCc1c(C(=O)O)[nH]c2ccc(F)cc12 |  | inactive: 1.95% |
| Cc1ccc(CSC2=Nc3ccccc3C3=NC(CCC(=O)NC4CCCCC4)C(=O)N23)cc1 (stereo not given) | active: 23.1 µM |  |
| COc1ccc(CCC(=O)NCc2ccc3c(c2)CCN3C(=O)c2ccc(Cl)cc2)cc1 |  | inactive: -6.55% |
| NNC(=O)c1ccc(COc2ccc3c(c2)CCC3)cc1 |  | inactive: -29.4% |
| CCc1ccccc1S(=O)(=O)Cc1ccc(C(=O)NCc2ccc(Cl)cc2)o1 | inconclusive [inhibitor, single point] |  |
| COc1ccc(OC)c(-c2[nH]nc3c2C(c2ccco2)C(C#N)=C(N)O3)c1 (stereo not given) |  | inconclusive: -30.3% [inhibitor] |
| Cn1nc(C(F)(F)F)c(-c2ccc(Br)cc2)c1NC(=O)c1ccco1 | inconclusive [inhibitor, single point] |  |
| CCC1=Nc2cc(C(=O)NCCc3ccc(OC)c(OC)c3)ccc2Sc2ccccc21 | active: 16.4 µM |  |
| Cn1nc(C(F)(F)F)c(C(=O)Nc2ccc(F)cc2F)c1Sc1cccc(C(F)(F)F)c1 | inconclusive [inhibitor, single point] |  |
| COCCCN1C(=O)C(CC(=O)NCCc2ccccn2)CC(C(=O)N2CCCCCC2)=C1C (stereo not given) |  | inactive: -10.1% |
| CCCCN(CCCC)CCNC(=O)Cn1nc(CC)n2c(cc3sccc32)c1=O | inconclusive [inhibitor, single point] |  |
| c1ccc(-c2cc(-c3ccccc3)on2)cc1 | inconclusive [inhibitor, single point] |  |
| NNC(=O)C1CCCn2c1nc1sc3c(c1c2=O)CCCC3 (stereo not given) |  | inactive: 8.97% |
| COc1ccccc1CN1CC[C@@]2(CCCN(S(=O)(=O)c3ccccc3)C2)C1 | inconclusive [inhibitor, single point] |  |
| CCc1ccc(C(=O)CC2(O)C(=O)N(CCc3ccccc3)c3ccc(Br)cc32)cc1 (stereo not given) | inconclusive [inhibitor, single point] |  |

| Compound | Potency | activity change, negative = growth inhibition |
| --- | --- | --- |
| O=C(CN(CC(=O)N1CCOCC1)S(=O)(=O)c1ccc(Br)s1)N1CCOCC1 |  | inactive: -20% |
| COc1ccc(OC)c(NC(=O)Cc2csc(NC(=O)Nc3ccccc3OC)n2)c1 | inconclusive [inhibitor, single point] |  |
| CC(=O)Nc1ccc(N/C=C/C(=O)c2ccco2)cc1 |  | inactive: -15.5% |
| COc1ccc(CNC(=O)CN2C(=O)c3ccccc3C2=O)cc1 |  | inactive: -0.0974% |
| CC(C)c1ccc(C(=O)NNC(=O)c2n[nH]c(=O)c3ccccc23)cc1 | inconclusive [inhibitor, single point] |  |
| c1ccc(CN2CCN(c3nc(N4CCOCC4)c4ccccc4n3)CC2)cc1 | inconclusive [inhibitor, single point] |  |
| COc1ccc(OC)c(S(=O)(=O)N(C)CC(=O)Nc2ccc3c(c2)OCCO3)c1 | inconclusive [inhibitor, single point] |  |
| COc1ccc(/C=C\C(=O)NCC(=O)N/N=C/c2ccc(O)cc2O)cc1 | inconclusive [inhibitor, single point] |  |
| COc1ccc(N=C2SC(CC(=O)Nc3ccc(F)cc3)C(=O)N2Cc2ccco2)cc1 (stereo not given) | inconclusive [inhibitor, single point] |  |
| COc1ccc(-n2nc3ccc(NC(=O)c4c(OC)cccc4OC)cc3n2)cc1 | active: 16.4 µM |  |
| COc1ccccc1NC(=O)c1cc2cc(Br)ccc2oc1=N | inconclusive [inhibitor, single point] |  |
| Cc1sc2nc(C(C)C)nc(SCC(=O)NC3CC3)c2c1C | active: 16.4 µM |  |
| CC(C)(C)NC(=O)CSc1nc2cccnc2n1C1CCCCC1 | inconclusive [inhibitor, single point] |  |
| Cc1ccc(SC[C@H](C)CN2CC[C@H](C)CCC2=O)cc1 | active: 12.6 µM |  |
| CO/N=C/C(C#N)=C/c1cc(C(=O)c2ccccc2)cn1C |  | inactive: -20.1% |
| CCCS(=O)(=O)N1CCCC(C(=O)NCCN2CCC(Cc3ccccc3)CC2)C1 (stereo not given) | inconclusive [inhibitor, single point] |  |
| CCc1nn(C(CC)C(=O)NCc2cccc(OC)c2)c(=O)c2cc3occc3n12 (stereo not given) | inconclusive [inhibitor, single point] |  |
| COCCCC1CCN(C(=O)c2cc(COc3cc(C)ccc3C)on2)CC1 | inconclusive [inhibitor, single point] |  |
| CC(C)CCSc1nc2c(c(=O)[nH]c(=O)n2C)n1CCc1ccccc1 | inconclusive [inhibitor, single point] |  |
| CCc1nc2ccccc2n2c(-c3ccc(C)cc3)c3c(=O)n(C)c(=O)n(C)c3c12 | inconclusive [inhibitor, single point] |  |
| CCOC(=O)c1ccc(CNC(=O)c2cc(C(C)(C)C)oc2C)o1 | inconclusive [inhibitor, single point] |  |
| CC(OC(=O)C1=Cc2ccccc2OC1)C(=O)NCC1CCCO1 (stereo not given) | inconclusive [inhibitor, single point] |  |
